Some of the results follow.

This test has as its target T1, OsWOX13 (Oryza sativa, UniProt Q5QMM3 1-267).
T1 sequence: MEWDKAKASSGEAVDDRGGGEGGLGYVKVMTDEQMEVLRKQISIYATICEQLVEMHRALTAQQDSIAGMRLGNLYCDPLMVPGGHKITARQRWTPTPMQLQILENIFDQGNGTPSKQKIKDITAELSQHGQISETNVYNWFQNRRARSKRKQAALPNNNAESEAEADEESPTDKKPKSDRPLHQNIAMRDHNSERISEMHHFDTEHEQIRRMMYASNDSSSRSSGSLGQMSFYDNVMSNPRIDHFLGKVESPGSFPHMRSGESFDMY
Briefly: protein-binding microarray (RPBM); PBS, 2% BSA, 51.3 ng/ul salmon testes DNA, 50 uM zinc acetate, 200 nM TF, 25 C, 1 h; high values mean tight binding. The note with it: protein: recombinant; tags: N-terminal polyhistidine and DsRed monomer fusion (pET32a); label: CyDye5-dUTP incorporated in the synthesized complementary strand; 3' TTTTT single-stranded linker to array surface; dsDNA, one strand shown. The method in brief:
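In PBS with 2% BSA, salmon testes DNA and 50 µM zinc acetate, 200 nM protein was incubated on a custom Agilent array at 25 °C for 1 h and then washed off. The array had been made double-stranded by primer extension with Cy5-dUTP and blocked with 2% BSA. The proteins were transcription factors fused N-terminally to polyhistidine and DsRed, expressed in E. coli BL21-CodonPlus and purified on Ni–NTA. The binding signal is per-feature fluorescence intensity (arbitrary units) from an Axon 4000B scanner.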
Turning to “TTTGGCTAGATTGAGGTCGTTGGTGACTCTAGGATCACCGCGGAGTCACCTAGTGCAG”, the binding signal was 6590 fluorescence intensity (a.u.).
With “TTCTCTAATTGGTAATTCATGATTAATCACTCCTACTTTACGGAGTCACCTAGTGCAG” the figure was 48000 fluorescence intensity (a.u.); with “CCATTGTTGATTTATTAATTAGCCATTTAAGTTCCCAAATCGGAGTCACCTAGTGCAG”, 30100 fluorescence intensity (a.u.); with “AGTTGATTATGAGTCTTGTGACTTGTGGGGTTGTTTTGGTCGGAGTCACCTAGTGCAG”, 29300 fluorescence intensity (a.u.).
Consider “ATGTGATGATTGTTAGTGGATGATGATGTGGCATCTTGTTCGGAGTCACCTAGTGCAG”, for which the binding signal was 43600 fluorescence intensity (a.u.).
For “GCAATTAATGATTTGCCACACCCTATCAATGACATGTGGGCGGAGTCACCTAGTGCAG” the value was 29100 fluorescence intensity (a.u.).
With “CCTAATTGGTGATCAATTTAACTAGTACTCGTAATAAATCCGGAGTCACCTAGTGCAG” the figure was 27300 fluorescence intensity (a.u.); with “TTGTGATTGGTTAAGATAAATAGATTGTTGTAGATATTCGCGGAGTCACCTAGTGCAG”, 36900 fluorescence intensity (a.u.); with “GCGTTGACTGACATGTGGGCCCGAGGGCGGGTCGCGCGTGCGGAGTCACCTAGTGCAG”, 26700 fluorescence intensity (a.u.).
For “TATTTATTATTTCAATTATAGACGATGTTCTGGTCGACAACGGAGTCACCTAGTGCAG” the value was 9490 fluorescence intensity (a.u.); for “GCAAATTGATAATTGAAACAGAATTCAGTCGTTTGTACAGCGGAGTCACCTAGTGCAG”, 62700 fluorescence intensity (a.u.); for “ATAATTAAATTTTGGTAAAGTTGAAAATAGCAACCAATTGCGGAGTCACCTAGTGCAG”, 29600 fluorescence intensity (a.u.).
For “CAACAATCATAATCATTACACGAGACATTAAATATCAATGCGGAGTCACCTAGTGCAG”, the binding signal is 11400 fluorescence intensity (a.u.).
With “ATGGTGATGGGGACAATGACTATGACAGCGGCGATGAGCTCGGAGTCACCTAGTGCAG” the figure was 5900 fluorescence intensity (a.u.); with “AGTATCAATTAAACCAATAATAATCTCATCCTCATTGTTTCGGAGTCACCTAGTGCAG”, 19500 fluorescence intensity (a.u.).
With “TTAATTATAACCAAATTACCTCAAACGAAATTGCTTCACACGGAGTCACCTAGTGCAG”, the binding signal is 7110 fluorescence intensity (a.u.).
With “GAAGATTGTGTCGATGATGAAATCCGAGGGGCTGTTCGAGCGGAGTCACCTAGTGCAG” the figure was 4930 fluorescence intensity (a.u.); with “ATGCTGCAATCCAATTGATAATCACATTTACCACCGGATACGGAGTCACCTAGTGCAG”, 11300 fluorescence intensity (a.u.); with “AGAGAGTTGCATGATTGCCACATTCAAATATTTGAGCTACCGGAGTCACCTAGTGCAG”, 4980 fluorescence intensity (a.u.).
As to “CTGTAATCTTGCTGATTGAATTCTATTTTGATGTGCAGAGCGGAGTCACCTAGTGCAG”, the binding signal was 44800 fluorescence intensity (a.u.).
With “ATGATTAATGGAGTCCAAAATTGTACAGCAGCAGTAACCCCGGAGTCACCTAGTGCAG” the figure was 31300 fluorescence intensity (a.u.); with “ATCAGGATGATTAGGCCCATTGTAATGACCCTACTGCTAACGGAGTCACCTAGTGCAG”, 9580 fluorescence intensity (a.u.).
In the case of “GCACTCCTAAATCATGGAGATTGATGGAAAACAAATCCAACGGAGTCACCTAGTGCAG”, the binding signal is 23000 fluorescence intensity (a.u.).
For “TCATTGACGAGTCGATCTATGATAGCCTGATGGTGATTAGCGGAGTCACCTAGTGCAG” the value was 12900 fluorescence intensity (a.u.); for “CAGATTTCTTATTGATTGTCCTAAAAGACCTATTATCACGCGGAGTCACCTAGTGCAG”, 27600 fluorescence intensity (a.u.).
With “ATGTTTGATTTAGATTATTAAGCAGATTATTATTGCAAACCGGAGTCACCTAGTGCAG” the figure was 27300 fluorescence intensity (a.u.).
“ACTTGTTGAAAATTGATTGCTTTGTTGTTGTAGTGTTTACCGGAGTCACCTAGTGCAG”: the binding signal was 23600 fluorescence intensity (a.u.).
With “TAAATAATTATATTTTAGGATAAATTTTGAATGTTAGAAGCGGAGTCACCTAGTGCAG” the figure was 23100 fluorescence intensity (a.u.); with “CCCAATCACCCTACCATCATTCATGTTACAAGAGTACCTGCGGAGTCACCTAGTGCAG”, 3390 fluorescence intensity (a.u.); with “ATTCAGTCATTTCCTAATTGTATTTCTATATGGACTCTAGCGGAGTCACCTAGTGCAG”, 11500 fluorescence intensity (a.u.).
In the case of “ATCCAGATTTTCCATTTCATTAATTATTACCGCTCCAACCCGGAGTCACCTAGTGCAG”, the binding signal was 8500 fluorescence intensity (a.u.).
“CCTGTAATGGATGCGCGGAATTGACCCAAGGCCAAGGCACCGGAGTCACCTAGTGCAG”: the binding signal was 6100 fluorescence intensity (a.u.).
With “TCGCAATCAAGAAATCAAATGTGACAGTCCAAAGGGAGATCGGAGTCACCTAGTGCAG” the figure was 18300 fluorescence intensity (a.u.).
Turning to “GTCCACCATTACTTCCAAATTGGGATTTATCACACATCACCGGAGTCACCTAGTGCAG”, the binding signal is 3210 fluorescence intensity (a.u.).
With “AAAACAAATTATACTGGCGCAAATTCTTTTCGCGATCTTGCGGAGTCACCTAGTGCAG” the figure was 6940 fluorescence intensity (a.u.); with “TATAGATTTAATTCATTGTTTATGTTTAGAACTATCTCATCGGAGTCACCTAGTGCAG”, 4940 fluorescence intensity (a.u.).
Take “CCTTCCGTCCAATTAACTGCGACCAAATCTGGGTTTATTTCGGAGTCACCTAGTGCAG”: the binding signal is 9320 fluorescence intensity (a.u.).
With “TGTGACAGGGATTTGGAATAAGTCCCTGAACCAAACAGCCCGGAGTCACCTAGTGCAG” the figure was 4450 fluorescence intensity (a.u.).
As to “ATTTCTGATTTCTCCTTTCTCCCCTCGAGTCTGATCCTCCCGGAGTCACCTAGTGCAG”, the binding signal was 6370 fluorescence intensity (a.u.).
With “ATGATTGCAGCCTCATATGCGTTGCACACTTGTCACAGCACGGAGTCACCTAGTGCAG” the figure was 11500 fluorescence intensity (a.u.).
For “TTGCTAATTAATTTATGTTAATTAGTAGCTAACCTAGCTGCGGAGTCACCTAGTGCAG” the value was 65200 fluorescence intensity (a.u.).
For “TCACTTCTTGTTATCAATTATGACATGTCACATATGTATACGGAGTCACCTAGTGCAG”, the binding signal is 10400 fluorescence intensity (a.u.).

The values above are taken from PMC7819943, “Rice protein-binding microarrays: a tool to detect cis-acting elements near promoter regions in rice”.
